The values that follow come from PubChem BioAssay AID463173 (ICCB-Longwood Screening Facility, Harvard Medical School, 2010).

Among all 52,000 compounds or so, about 1,700 (3.3%) were called active. Rule as the data show it: active = survival mostly below about 52% (no sharp cut-off); inactive = mostly above about 56%. The list shows a part of the results.

In the assay the test system is Wild type. Nature of the assay: S. aureus survival, RN4220 and DeltatarO strains – OD600, teichoic acid synthesis inhibitors, primary screen (AID 463173). Conditions: S. aureus RN4220 wild type/DeltatarO growth, OD600, 18 h, active compounds read low, screened at 18.75 µg/mL (by protocol).
Consider `CCOC(=O)c1cc(S(=O)(=O)Nc2ccccc2)[nH]n1`, for which the survival is inactive: 73%.
To `CCC(C)NC(=O)c1c2c(nc3ccccc13)C(=O)N(C1CCCCC1)C2` (centres undefined) belongs inactive: 80%; to `CCOC(=O)N[C@H](Cc1c[nH]c2ccccc12)C(=O)Nc1cccc(Cl)c1`, inactive: 124%; to `COc1ccc(OC)c(NC(=O)c2nc(S(=O)(=O)Cc3ccc(F)cc3)ncc2Cl)c1`, active: -3%.
To `COc1ccc(C(=O)c2cn(CC(=O)Nc3cc(C)ccc3C)c3nc(C)ccc3c2=O)cc1` belongs inactive: 146%.
Next, `CCOCCCN(Cc1ccco1)C(=O)c1cc2c(s1)-c1c(C)cccc1OC2`: active: 12%; `CC(C)Oc1ccc(CNC(=O)C2=Cc3ccccc3OC2)cc1`: inactive: 60%.
As to `O=C(Oc1ccc(F)cc1)N1CCOCC1`, the survival was inactive: 107%.
For `CCc1ccc(C2CC(=O)Nc3c2c(=O)n(C)c2ncnn32)cc1` (centres undefined), the survival was inactive: 142%.
Turning to `COc1ccc(N2CCN(C(CNC(=O)c3ccc(OC)c(OC)c3)c3cccnc3)CC2)cc1` (centres undefined), the survival is inactive: 81%.
Next, `NC(=O)C1CCN(c2csc3ccc(F)cc3c2=O)CC1`: inactive: 70%.
Consider `CCn1c(CN2CCN(C)CC2)nc2cc(NC(=O)c3ccc([N+](=O)[O-])cc3)ccc21`, for which the survival was inactive: 86%.
Next, `CCOc1ccc(S(=O)(=O)N2CCCCC2C)c2ccccc12` (centres undefined): inactive: 115%; `CCCCSc1nnc2c(n1)OC(c1ccc(Br)s1)Nc1ccccc1-2` (centres undefined): active: 9%.
For `Cc1ccc(NC(=O)CN(Cc2ccccc2)S(=O)(=O)c2ccc3nc(C)sc3c2)c(C)c1`, the survival is inactive: 84%.
`Cc1ccc(-c2nc(CSc3nnc(C)n4c3cc3occc34)c(C)o2)cc1`: the survival is inactive: 91%.
`CCCCOC(=O)c1ccc(-n2nnc3c(sc4nc(C)cc(C)c43)c2=O)cc1`: the survival is inactive: 102%.
Next, `CN(C)c1ccc(CNC(=O)CCCN2C(=O)c3cccnc3Oc3ccc(Cl)cc32)cc1`: inactive: 68%.
To `COc1ccc(CNC(=O)c2c(O)nc3c(C)cccn3c2=O)cc1` belongs inactive: 76%.
On to `CC(C)Cn1cc(NC(=O)N2CCN(c3cccc(C(F)(F)F)c3)CC2)c2ccccc2c1=O`, for which the survival was inactive: 68%.
Next, `Cc1cccc2nc(-c3ccccn3)c(Nc3ccccc3)n12`: active: 21%; `COc1cc2nc(Nc3cccc(F)c3)nc(N)c2cc1OC`: inactive: 89%; `CCOc1ccc(-c2nc(-c3ccccc3)c(-c3ccccc3)[nH]2)cc1OCC`: inactive: 163%.
Next, `O=S(=O)(NCCc1nnc2ccc(SCc3ccccc3Cl)nn12)c1ccccc1`: inactive: 76%.
Turning to `Cc1cc(N2CCC(C)CC2)nc2ccc(NC(=O)Cc3ccccc3Br)cc12`, the survival is inactive: 64%.
As to `Cc1ccc2c(CC(=O)N(Cc3ccc(N(C)C)cc3)Cc3ccco3)coc2c1C`, the survival was inactive: 70%.
To `Cc1ccc2oc(-c3ccc(C)c(NC(=O)/C=C/c4ccco4)c3)nc2c1` belongs inactive: 80%; to `O=C(NCc1ccccc1Cl)c1nnc(Cc2cccc(F)c2)o1`, inactive: 87%; to `COc1cc2c(cc1N)CCCC2`, inactive: 110%.
On to `O=C1CSC2(C(=O)N(Cc3cccc(C(F)(F)F)c3)c3ccccc32)N1c1ccc(F)c(F)c1` (centres undefined), for which the survival is inactive: 68%.
Next, `Cc1ccc(CNC(=O)Cn2ccn(-c3cccc(Cl)c3)c(=O)c2=O)cc1`: inactive: 85%; `N#Cc1ccccc1CSc1nnc(-c2ccc(Br)cc2)o1`: inactive: 73%.
`COc1cccc(-c2cc(C(F)(F)F)n3ncc(C(=O)OC(C)C)c3n2)c1`: the survival was inactive: 78%.
On to `CCc1ccc(OCC(=O)N(Cc2ccc(C(C)C)cc2)C2CCS(=O)(=O)C2)cc1` (centres undefined), for which the survival was inactive: 54%.
Next, `CCCOc1ccc(C2C(=O)N(C3CCC(C)CC3)CC(=O)N2CCc2ccccc2)cc1OC` (centres undefined): inactive: 129%; `Cc1ccc(-c2noc(CNC(=O)c3ccc(C)c(Cl)c3)n2)cc1`: inactive: 91%.
For `O=C(Nc1ccccc1C(F)(F)F)c1ccc(F)c(S(=O)(=O)N2CCc3ccccc3C2)c1`, the survival was inactive: 83%.
Regarding `Cc1ccc(-n2c(C)cc(/C=C(\C#N)C(=O)Nc3ccc(C)c(C)c3)c2C)cc1`, the survival is inactive: 67%.
Next, `CCN(CC)C(=O)C1=C(C)Nc2nc3ccccc3n2C1c1cccc(OC)c1` (centres undefined): inactive: 86%; `COc1ccc(NC(=O)[C@H](Cc2ccccc2)N2Cc3ccccc3C2=O)cc1OC`: inactive: 94%.
To `Cc1ccc(-n2ncc(C(=O)NCCN3CCN(C)CC3)c2C2CCN(C(=O)OC(C)(C)C)CC2)cc1C` belongs inactive: 84%.
As for `COc1cccc(NC(=O)Cn2c(=O)n(Cc3ccc4c(c3)OCO4)c(=O)c3oc4ccccc4c32)c1`, the survival was inactive: 80%.
Next, `CC(=O)c1cccc(NS(=O)(=O)c2c(C(=O)N3CCCCCC3)c(C)n(C)c2C)c1`: inactive: 81%; `CCOc1ccc(CNC(=O)Cn2c(=O)c3cccn3c3cccnc32)cc1`: inactive: 89%.
Next, `COc1ccc2c(c1)c(N1CCCC1=O)c(C(=O)Nc1ccc(OC)c(Cl)c1)n2C`: inactive: 68%.
As to `Cc1nn(-c2ccccc2)c2c1N(CCCC(=O)NC(C)c1ccccc1)C(=O)CS2` (centres undefined), the survival was inactive: 72%.
`Cc1nn(-c2ccccc2)c2c1N(CC(=O)N1CCN(c3ccc(Cl)cc3)CC1)C(=O)CS2`: the survival is inactive: 72%.
Turning to `CCc1ccc(NC(=O)c2cc(S(=O)(=O)NC3CCCCCC3)ccc2F)cc1`, the survival is inactive: 99%.
Turning to `COc1cc(NC(=O)c2noc3c2CC(C)CC3)c(OC)cc1Cl` (centres undefined), the survival was inactive: 69%.
Turning to `CCOC(=O)c1c(C)nc2c(c1C)c(=O)oc1ccccc12`, the survival was inactive: 102%.
To `O=C(NCCNC1CCCC1)c1ccco1` belongs inactive: 92%.
As for `CCc1ccc(CNC(=O)CCn2nc(C)c3c(C)n(-c4ccccc4)nc3c2=O)cc1`, the survival was inactive: 65%.
`Cc1ccc(S(=O)(=O)c2cn(Cc3ccccc3)c3cc(N4CCOCC4)c(F)cc3c2=O)cc1`: the survival is inactive: 68%.
To `Cc1nn(CCCC(=O)Nc2ccccc2C(F)(F)F)c(=O)c2nn(-c3ccccc3)c(C)c12` belongs inactive: 91%; to `CC1CCC(NC(=O)c2ccc(CSc3nc4ccncc4n3Cc3ccc(F)cc3)cc2)CC1` (centres undefined), inactive: 81%; to `COc1ccc(-n2c(SCCC(C)C)nc3sc4c(c3c2=O)CC(C(C)C)OC4)cc1` (centres undefined), inactive: 42%.
Consider `O=C(Nc1ccccc1)c1cccc(N2CCCS2(=O)=O)c1`, for which the survival is inactive: 126%.
Take `Cc1cc(C)n2nc(CNC(=O)c3ccc(Cl)cc3)nc2n1`: the survival is inactive: 126%.
As for `COc1ccc(C(CC(=O)Nc2ncccc2C)N2Cc3ccccc3C2=O)cc1OC` (centres undefined), the survival was inactive: 88%.
To `Cc1nn2c(-c3ccccc3)cc(-c3ccccc3)nc2c1-c1ccc(Cl)cc1` belongs inactive: 86%; to `CC(=O)Nc1ccc2nc(NC(=O)c3cc4ccccc4o3)sc2c1`, inactive: 112%; to `COc1cccc(-c2nc(CS(=O)(=O)CC(=O)N3CCN(c4ccccc4)CC3)c(C)o2)c1`, inactive: 94%.
Next, `O=C(Cn1c(=O)ccc2cc(S(=O)(=O)N3CCCC3)ccc21)Nc1ccccc1`: inactive: 65%; `Cc1ccc(Cl)cc1N1CCN(C(=O)c2ccc3c(Cl)c4c(nc3c2)CCCC4)CC1`: inactive: 29%; `COc1ccccc1CNC(=O)CCc1c(C)c2cc3c(C)coc3cc2oc1=O`: inactive: 72%.
In the case of `CCn1ccc2c(OCC(=O)Nc3ccc(OC)cc3OC)cccc2c1=O`, the survival is active: -3%.
Next, `O=c1ccc(-c2ccccc2)nn1Cc1c(F)cccc1Cl`: inactive: 84%.
With `CCN1CCN(CCCNC(=O)Cn2c(-c3cccs3)cc3cc(Cl)ccc32)CC1`, the survival was inactive: 69%.
Next, `COc1ccc(-c2nc(CNC(=O)Nc3ccccc3)c(C)o2)c(OC)c1`: inactive: 72%.
In the case of `CC1CCCCN1c1cc2c(cc1F)c(=O)c(S(=O)(=O)c1ccccc1)cn2Cc1ccccc1` (centres undefined), the survival was inactive: 136%.
Next, `O=C(Cn1c(-c2cccs2)cc2cc(F)ccc21)NCCc1ccc(Cl)cc1`: inactive: 109%.
Turning to `O=S(=O)(Nc1ccc(O)c(Sc2nc3ccccc3s2)c1)c1cc(Cl)ccc1Cl`, the survival was active: 0%.
With `CCCCOc1ccc(CNC(=O)c2cnc3sc(N4CCCC4)nn3c2=O)cc1`, the survival is inactive: 126%.
To `Cc1c(Cl)cccc1NC(=O)C(=O)NCCc1csc2nc(-c3ccccc3F)nn12` belongs active: 1%; to `CCn1cc(C(=O)NCCC(C)C)c(=O)c2cc(S(=O)(=O)N(C)C3CCCCC3)ccc21`, inactive: 82%; to `CCC(=O)N1c2ccccc2CC1C(=O)NCCCN1CCN(c2ccc(OC)cc2)CC1` (centres undefined), inactive: 88%.
To `COc1ccccc1Nc1nc(C)nc(N)c1S(=O)(=O)c1ccccc1` belongs inactive: 80%; to `Cc1nc2c3cccnc3nn2c(C)c1CCC(=O)NCc1ccccc1`, inactive: 123%.
For `CCN(CC)S(=O)(=O)c1ccc2c(c1)nc(CN(C)C(=O)Nc1ccc(C)c(Cl)c1)n2C`, the survival is inactive: 117%.
For `Cc1ccc(C)c(NC(=O)c2cc(S(=O)(=O)NCc3ccccc3)ccc2F)c1`, the survival is inactive: 70%.
To `Cc1ccc(OCC(=O)NCC2(N3CCN(C)CC3)CCCCC2)cc1` belongs inactive: 96%; to `COc1ccc(Nc2ncc(C(=O)Nc3cccc(Cl)c3)c3ccccc23)cc1`, inactive: 72%; to `CCc1ccc(NC(=O)C(=O)NCC(c2ccc3c(c2)OCO3)N2CCN(C)CC2)cc1` (centres undefined), inactive: 110%.
With `COc1ccc(CNC(=O)c2ccc(Cn3c(=O)c4cccn4c4cccnc43)cc2)c(OC)c1`, the survival was inactive: 82%.
Turning to `Cc1ccc(O)c(NC(=O)c2cc(-c3ccc(F)cc3)no2)c1`, the survival is inactive: 87%.
Next, `COc1ccc(-n2nc3c(N4CCC(C(=O)N5CCC(C)CC5)CC4)nnc(C)c3c2C)cc1`: inactive: 65%.
Regarding `Cc1oc(CC(C)C)c(CN2CCOCC2)c1C(=O)O`, the survival is inactive: 106%.
In the case of `CC(C)CCNC(=O)c1cnc2sc(N3CCCCCC3)nn2c1=O`, the survival was inactive: 80%.
Next, `O=C(C1CCC1)N1CCCc2cc(S(=O)(=O)N3CCN(c4cccc(Cl)c4)CC3)ccc21`: inactive: 80%.
